Residue numbers refer to the chain shown, from its start. Some of the results follow.
T1: RBFOX1 RRM RbFoxmut (Fox-RRM*) (Homo sapiens, UniProt Q9NWB1 109-208, R118D;E147R;N151S;E152T)
T1 sequence: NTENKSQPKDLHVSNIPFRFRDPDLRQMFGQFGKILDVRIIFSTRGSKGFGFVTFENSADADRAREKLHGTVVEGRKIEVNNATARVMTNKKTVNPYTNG

B1: GUUUAUU (DNA:RNA)
RNA: GGGAGACCGGAAUUCAGAUUGUCCGUUUAUUUUAAAUCCCGUCGUAGCCACCA
DNA 1: CAATCTGAATTCCGGTCTCCC
DNA 2: TGGTGGCTACGACGGGATT
B2: CGGGCAU (DNA:RNA)
RNA: B1 RNA with G25C, U26G, U27G, U28G, A29C, U30A
DNA 1: CAATCTGAATTCCGGTCTCCC
DNA 2: TGGTGGCTACGACGGGATT
B3: ACCUCGA (DNA:RNA)
RNA: B1 RNA with G25A, U26C, U27C, A29C, U30G, U31A
DNA 1: CAATCTGAATTCCGGTCTCCC
DNA 2: TGGTGGCTACGACGGGATT
B4: CCGGAGU (DNA:RNA)
RNA: B1 RNA with G25C, U26C, U27G, U28G, U30G
DNA 1: CAATCTGAATTCCGGTCTCCC
DNA 2: TGGTGGCTACGACGGGATT
B5: GUAUGUC (DNA:RNA)
RNA: B1 RNA with U27A, A29G, U31C
DNA 1: CAATCTGAATTCCGGTCTCCC
DNA 2: TGGTGGCTACGACGGGATT
B6: GCAGCCG (DNA:RNA)
RNA: B1 RNA with U26C, U27A, U28G, A29C, U30C, U31G
DNA 1: CAATCTGAATTCCGGTCTCCC
DNA 2: TGGTGGCTACGACGGGATT
B7: CGAGCGC (DNA:RNA)
RNA: GGGAGACCGGAAUUCAGAUUGUCCCGAGCGCUUAAAUCCCGUCGUAGCCACCA
DNA 1: CAATCTGAATTCCGGTCTCCC
DNA 2: TGGTGGCTACGACGGGATT
B8: AGAGUUG (DNA:RNA)
RNA: B7 RNA with C25A, C29U, G30U, C31G
DNA 1: CAATCTGAATTCCGGTCTCCC
DNA 2: TGGTGGCTACGACGGGATT
B9: AGAUCGU (DNA:RNA)
RNA: B7 RNA with C25A, G28U, C31U
DNA 1: CAATCTGAATTCCGGTCTCCC
DNA 2: TGGTGGCTACGACGGGATT
B10: AUAGUUU (DNA:RNA)
RNA: B1 RNA with G25A, U27A, U28G, A29U
DNA 1: CAATCTGAATTCCGGTCTCCC
DNA 2: TGGTGGCTACGACGGGATT
B11: CUUCUAU (DNA:RNA)
RNA: B1 RNA with G25C, U28C, A29U, U30A
DNA 1: CAATCTGAATTCCGGTCTCCC
DNA 2: TGGTGGCTACGACGGGATT
B12: AUCACAA (DNA:RNA)
RNA: B7 RNA with C25A, G26U, A27C, G28A, G30A, C31A
DNA 1: CAATCTGAATTCCGGTCTCCC
DNA 2: TGGTGGCTACGACGGGATT
B13: UUCGCGG (DNA:RNA)
RNA: B7 RNA with C25U, G26U, A27C, C31G
DNA 1: CAATCTGAATTCCGGTCTCCC
DNA 2: TGGTGGCTACGACGGGATT
B14: AAAGAUA (DNA:RNA)
RNA: B7 RNA with C25A, G26A, C29A, G30U, C31A
DNA 1: CAATCTGAATTCCGGTCTCCC
DNA 2: TGGTGGCTACGACGGGATT
B15: GAGCUGA (DNA:RNA)
RNA: B7 RNA with C25G, G26A, A27G, G28C, C29U, C31A
DNA 1: CAATCTGAATTCCGGTCTCCC
DNA 2: TGGTGGCTACGACGGGATT
B16: UCUGUAU (DNA:RNA)
RNA: B1 RNA with G25U, U26C, U28G, A29U, U30A
DNA 1: CAATCTGAATTCCGGTCTCCC
DNA 2: TGGTGGCTACGACGGGATT
B17: AUUUGCA (DNA:RNA)
RNA: B1 RNA with G25A, A29G, U30C, U31A
DNA 1: CAATCTGAATTCCGGTCTCCC
DNA 2: TGGTGGCTACGACGGGATT
B18: UCCGUGU (DNA:RNA)
RNA: B7 RNA with C25U, G26C, A27C, C29U, C31U
DNA 1: CAATCTGAATTCCGGTCTCCC
DNA 2: TGGTGGCTACGACGGGATT
B19: AGCGUAG (DNA:RNA)
RNA: B7 RNA with C25A, A27C, C29U, G30A, C31G
DNA 1: CAATCTGAATTCCGGTCTCCC
DNA 2: TGGTGGCTACGACGGGATT
B20: GCGCUAA (DNA:RNA)
RNA: B1 RNA with U26C, U27G, U28C, A29U, U30A, U31A
DNA 1: CAATCTGAATTCCGGTCTCCC
DNA 2: TGGTGGCTACGACGGGATT

Target: T1, RBFOX1 RRM RbFoxmut (Fox-RRM*)
Test: EMSA; HiTS-Eq, 1 nM pool, 10 min; buffer printed only for the single-RNA assays: 10 mM Tris pH 7.5, 150 mM NaCl, 3.4 mM EDTA, 0.001% NP-40, 30 C
Settings: tags: His6 N-terminal (pET28a); label: 5' 32P
Outline: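 Relative association constants, normalised to the cognate motif, were derived by comparing read counts of each RNA species with those of the control reaction. The RNA sequenced was the free fraction, separated by 8% native PAGE after a 10 min equilibration in 50 µL of 1 nM 5′-radiolabelled RNA (7 randomized nucleotides) with increasing concentrations of purified wild-type or mutant RbFox RRM.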

Binder	binding signal
B1	0.0945 KA relative to UGCAUGU
B2	0.0853 KA relative to UGCAUGU
B3	0.149 KA relative to UGCAUGU
B4	0.0907 KA relative to UGCAUGU
B5	0.334 KA relative to UGCAUGU
B6	0.0852 KA relative to UGCAUGU
B7	0.103 KA relative to UGCAUGU
B8	0.163 KA relative to UGCAUGU
B9	0.105 KA relative to UGCAUGU
B10	0.135 KA relative to UGCAUGU
B11	0.121 KA relative to UGCAUGU
B12	0.0834 KA relative to UGCAUGU
B13	0.0745 KA relative to UGCAUGU
B14	0.0943 KA relative to UGCAUGU
B15	0.075 KA relative to UGCAUGU
B16	0.154 KA relative to UGCAUGU
B17	0.239 KA relative to UGCAUGU
B18	0.119 KA relative to UGCAUGU
B19	0.162 KA relative to UGCAUGU
B20	0.0854 KA relative to UGCAUGU

Reference: paper PMC9911399, “Two distinct binding modes provide the RNA-binding protein RbFox with extraordinary sequence specificity”
